Laboratory results as given in the antibiotic and cytotoxicity screens of Wong et al. (2023).
The other results are listed elsewhere or left out.

Columns and labels:
[1] = tested on: HSkMC (human skeletal muscle cells); assay: cytotoxicity call (relative viability < 0.9); conditions: 10 µM
[2] = tested on: S. aureus RN4220; assay: growth inhibition call (relative growth <= 0.2); conditions: 50 µM

| SMILES | cytotoxicity call [1] | growth inhibition call [2] |
| --- | --- | --- |
| C[C@H]1CN([C@@H](C)CO)C(=O)c2cc(NC(=O)Nc3ccccc3)ccc2O[C@H]1CN(C)C(=O)Nc1cccc2ccccc12 | inactive | inactive |
| C[C@@H]1CCCCO[C@@H](CN(C)CC2CCCCC2)[C@H](C)CN([C@@H](C)CO)C(=O)c2cc(NC(=O)Nc3ccccc3)ccc2O1 | inactive | inactive |
| COc1ccc(NC(=O)Nc2ccc3c(c2)C(=O)N([C@H](C)CO)C[C@H](C)[C@H](CN(C)S(=O)(=O)c2ccc(Cl)cc2)OCCCC[C@@H](C)O3)cc1 | inactive | inactive |
| C[C@@H]1CN([C@H](C)CO)C(=O)c2cccc(NS(=O)(=O)c3ccc(Cl)cc3)c2O[C@@H]1CN(C)Cc1ccc(C(F)(F)F)cc1 | inactive | inactive |
| C[C@@H]1CN([C@H](C)CO)C(=O)c2cc(NC(=O)CCN3CCOCC3)ccc2O[C@@H]1CN(C)C(=O)Nc1ccc2c(c1)OCO2 | inactive | inactive |
| Cc1noc(C)c1NC(=O)Nc1ccc2c(c1)C(=O)N([C@H](C)CO)C[C@@H](C)[C@@H](CN(C)C(=O)Nc1ccccc1)OCCCC[C@@H](C)O2 | inactive | inactive |
| Nc1nc(=O)c2c([nH]1)NCC(CNc1ccc(C(=O)NC(CCC(=O)O)C(=O)O)cc1)=N2 (stereo not given) | inactive | inactive |
| O=C(C[C@H]1CC[C@@H]2NC[C@H](O)COC[C@H]2O1)NCCN1CCCCC1 | inactive | inactive |
| O=C(O)c1ccc(O)c(O)c1 | inactive | inactive |
| COc1cccc(C(=O)Nc2ccc3c(c2)C(=O)N(C)[C@H]2CC[C@@H](CC(=O)NCCCN4CCOCC4)O[C@@H]2CO3)c1 | inactive | inactive |
